From the RNAGym collection of RNA variant scans (doi:10.7554/elife.90254)
The source gives no read counts; variants with many changes may rest on few reads.

B1: LINE1-mini (parent)
chain: GGCAGAGCUCAACACAGCGUGGCAAAGUGGCUGUGGCUAGACUGCC

Variants of: B1
Experiment: self-cleavage, relative activity (ratio to wild type); higher = more cleavage; in vitro, sequencing; the parent is a self-cleaving ribozyme

| Variant | self-cleavage |
| --- | --- |
| U9C G35A U43A | 0.01 |
| C37U U43A G44C | 0.05 |
| C13G G19U G22U U28A | 0.07 |
| G1A U9G A24G | 0.17 |
| G5U G30C G40C C46U | 0.05 |
| C8G C18U G36A C46U | 0.01 |
| G1U C10G C13U C15A G17C A26G G33U C45A C46G | 0.01 |
| G2U C3U C13U G30C A41U | 0.05 |
| G7C C8A U20A C37G U38G C46U | 0.02 |
| U38A C42U C45U | 0.15 |
| G7A G19A G36U | 0.3 |
| C8U A14C A26G G27U G35U C46G | 0.02 |
| C8G U9A C13G G29C G33A G44A C46A | 0.13 |
| G7U A25U G36A | 0.05 |
| A4G A16C G22U A25C C37U U43C | 0 |
| A16U G21U A25G U28A U38A | 0.97 |
| G5U A16C A24G A25G U28A G33A C37G U43C | 0 |
| G2C C18A C37G G40C C42U C46U | 0.21 |
| G2U G5U A11C | 0 |
| G1U C8G U34A G44U | 0.02 |
| G7U G22C G35U A41C | 0.12 |
| C10A C13U G17C A41C | 0.02 |
| A4U C13U A26U | 0.03 |
| C18G A25U U32A U38G A39U | 0.08 |

| Variant | self-cleavage |
| --- | --- |
| A6G G22A C31U U32A | 0.05 |
| A6C C15U A25C | 0.16 |
| G22A A24U U28G C31A C45U | 0.04 |
| C15G C23U G30C G33C A39C U43C | 0.02 |
| G21C G22U A26G G44U | 0.32 |
| C3A G30C G40C | 0.16 |
| G22U G33A A39G | 0.19 |
| G7A A14C A26U | 0.14 |
| A14G G19A G22C | 0.12 |
| G5A A16U G27U U28A | 0.07 |
| G5C C10G U20C U38A C42G C45U | 0.02 |
| A16G U34A G36C U38A A41G | 0 |
| C8U G27C G36U | 0.08 |
| A11G C13A G22U G36C A41C | 0 |
| A26U G40C G44U | 0.02 |
| G5U C8G C37A U43A | 0.06 |
| A4G G5C A24C G36C | 0.05 |
| G2A A11U A14C G22U | 0.03 |
| C10G U38C U43C | 0 |
| A6U C13A G21A | 0.24 |
| G1C U9G G30A C31A | 0 |
| A4G A6C G44U | 0.38 |
| A6U G29U G40U C46A | 0.09 |
| G5A A6C G36C A39U | 0.04 |

| Variant | self-cleavage |
| --- | --- |
| G27C G29U U34A | 1.04 |
| G5U C10U C13U A14C G22U C23U U34G | 0 |
| G19A U20A A24G A25G | 0.24 |
| U9G U28C C45U | 0.08 |
| G17C G27A G29U U32G G36A | 0.04 |
| G17C G30A U43A | 0.14 |
| G19A G22A U28A | 0.59 |
| G17U A24U G30A G35C | 0.01 |
| A25U U28C G40U | 0.31 |
| A14U U34A G40A | 0.08 |
| C3G U9C C23A G29C G35C | 0.01 |
| C10A C31A A41C | 0.02 |
| A4G G19A C23U U28C G40U | 0.15 |
| G2C A6G G17A U20A | 0.02 |
| G1U G5U G7A | 0.07 |
| G17U A24U G44U C45A | 0.04 |
| G2C C8A A39C | 0.04 |
| G2A C3U G19A A24G G40A C46G | 0.4 |
| A6U C13G G27U | 0.04 |
| U20G A25C G29U U43C | 0.02 |
| C8G G17A G21U | 0.01 |
| U9G C10A C13A G30U G44C | 0.06 |
| C18U A39G G44U | 0.01 |
| C3A A6C A11C | 0.04 |

| Variant | self-cleavage |
| --- | --- |
| G21U G30U G33U | 0.04 |
| G5U C31U G35U | 0.03 |
| A14G C18U C45U | 0 |
| A6G G19C G21U U38G | 0.01 |
| G2U C8A G19A A24U C37G | 0.21 |
| C13A A25G A41G | 0.03 |
| G7A U34C G40A A41C C42A G44C | 0.06 |
| G1U G2U C8G G19U C23A G35A A39G | 0.06 |
| C10G G40A G44U | 0.03 |
| G35C C37A C42A | 0.04 |
| C23G A25U C37U U38G | 0.01 |
| G1A U9G G27A U32C C42G | 0.01 |
| U9G G33U U34A | 0.03 |
| G21C U28A G29A | 0.41 |
| A11C G21C G22U G33A G40U | 0.01 |
| A12G G17A A26C C37G | 0.01 |
| C3A G7U U20A G21A | 0.13 |
| C31G U32G A39C | 0.05 |
| C3A U9A C15G C23U | 0.23 |
| G1U G7A A41C | 0.06 |
| A14C C23U G35C C37U A41C | 0.01 |
| G22U G30C U32C G35C | 0.15 |
| C3U A25G A39U | 0.12 |
| A16G A39C C45A | 0.01 |

| Variant | self-cleavage |
| --- | --- |
| U9A A11G C37G | 0.03 |
| G19A A41U C45A | 1.06 |
| A12G U20C G27A G35C | 0.02 |
| G2C A4G G29A | 0.18 |
| G17A G21C A24U C37G | 0.08 |
| A11U G17U G19C | 0.11 |
| G5U G35C G40C | 0.01 |
| G2A G5A C15U A16C C31A U38A A41C | 0.06 |
| G1U C15U G36A | 0.13 |
| G7U G22A A26G G30C G40A | 0.15 |
| G5A A41U C46U | 0.06 |
| G1A A16U U28G U34G | 0.03 |
| A4G G33U C45U | 0.06 |
| G5C A16U G29C C42U | 0.03 |
| U9G C23A G40U C42G | 0.04 |
| C3G G7A U43G | 0.03 |
| C8A G22A A26C U38C G40U | 0.07 |
| G5U A6G G7C C15U | 0.08 |
| U9G C15A G17C G27A | 0.01 |
| G33C U34A C42G | 0.11 |
| C3U A6G U9C A25G C37G | 0.01 |
| G5A G30C U34G U43A | 0.03 |
| A4G C13A G27U C37U | 0.08 |
| G22C G27U A39G C42U | 0.02 |

| Variant | self-cleavage |
| --- | --- |
| G5U C18G G35U G44A | 0.01 |
| U20C A24U G35C G40U | 0.03 |
| C3U A6C A12G G22U U28A U34G G40U | 0 |
| G1C C23U G29C | 0.09 |
| G1A G7U C15A C45U | 0.35 |
| G29A G30C G40U G44U | 0.11 |
| G2U A11U C31G U32C A39U | 0.01 |
| C3A A6G A16U G36U | 0.06 |
| A11U G17U G22A | 0.33 |
| C8G C37A G44C | 0.04 |
| C10A U20C G36A A41C | 0.06 |
| U28C C31U G35C G44A | 0.12 |
| G1C U20A G35A | 0.04 |
| C8U G22U G29U G30C U38A | 0.08 |
| U32C G35A C45A | 0.04 |
| A24C G30U G40C | 0.02 |
| G17C G40U A41U | 0.03 |
| G2C A4U C8A G17C G19C A26U U32G | 0.03 |
| U9C A12C G27U | 0.01 |
| G5C C18U U28G G36C A39C C42A | 0 |
| A4U G7C A12U U20C C31G | 0.01 |
| G5C U28A G44A | 0.12 |
| C15A A25C G35U | 0.03 |
| A16G C18A A26C | 0.06 |

| Variant | self-cleavage |
| --- | --- |
| C3A C18U U20G A26U U38C | 0.11 |
| C8G A11C G21C C31U G33C C37U C46G | 0 |
| A11U G36A C46G | 0 |
| C31A U34C U43C C45U | 0.15 |
| U9G C10G U34C | 0.04 |
| C13A C18A U28G C46G | 0.04 |
| C18A C31U G33U | 0.04 |
| G21U A24G G33A G35U G36U | 0.22 |
| G22U A39G C42A | 0.14 |
| A4C U9A A26G | 0.06 |
| G2C C31U C42G | 0.03 |
| C3A G5C A12G C18A U28C G36U C42G | 0.18 |
| G2A C10A G22U C31U | 0.04 |
| A11C U34C C42U | 0.04 |
| C3A A16U G30C G35A | 0.07 |
| A6C G7U G36A | 0.05 |
| G5U C10U A39C | 0.1 |
| G17U G19U C37G | 0.07 |
| A12G U28G A41C C42U U43A C45G | 0.02 |
| C18G G30U C37A C42A | 0.03 |
| G1A G2A A11C C13A G27C | 0.04 |
| G1C G22U A39C U43C C45U | 0 |
| G19C A24U G29A C31U U34C C42G | 0.15 |
